Results taken from PubChem BioAssay AID488969 (Vanderbilt High Throughput Screening Facility, 2010).
In all, about 110,000 compounds were measured (“z-score”: median about -0.1, highest 2% from about 2 on). The list shows a part of the results. Activity calls are given as the source filed them.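 How the source made its calls: active means z-score in the third read window above 3 or below -3; inactive means the rest.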

The compounds below were run against Metabotropic glutamate receptor 8 (Rattus norvegicus) (UniProt P70579) (assay: rat mGluR8 modulators via GIRK flux, primary screen, cell-based, thallium flux, HTS (AID 488969)). Details: HEK293 rat mGluR8, GIRK (G protein-gated inwardly rectifying potassium channel) thallium flux, FluoZin2; at 10 µM; stronger effect = higher value; submaximal glutamate (EC20) added with thallium.
Chain of UniProt P70579 (P70579 whole entry, looked up): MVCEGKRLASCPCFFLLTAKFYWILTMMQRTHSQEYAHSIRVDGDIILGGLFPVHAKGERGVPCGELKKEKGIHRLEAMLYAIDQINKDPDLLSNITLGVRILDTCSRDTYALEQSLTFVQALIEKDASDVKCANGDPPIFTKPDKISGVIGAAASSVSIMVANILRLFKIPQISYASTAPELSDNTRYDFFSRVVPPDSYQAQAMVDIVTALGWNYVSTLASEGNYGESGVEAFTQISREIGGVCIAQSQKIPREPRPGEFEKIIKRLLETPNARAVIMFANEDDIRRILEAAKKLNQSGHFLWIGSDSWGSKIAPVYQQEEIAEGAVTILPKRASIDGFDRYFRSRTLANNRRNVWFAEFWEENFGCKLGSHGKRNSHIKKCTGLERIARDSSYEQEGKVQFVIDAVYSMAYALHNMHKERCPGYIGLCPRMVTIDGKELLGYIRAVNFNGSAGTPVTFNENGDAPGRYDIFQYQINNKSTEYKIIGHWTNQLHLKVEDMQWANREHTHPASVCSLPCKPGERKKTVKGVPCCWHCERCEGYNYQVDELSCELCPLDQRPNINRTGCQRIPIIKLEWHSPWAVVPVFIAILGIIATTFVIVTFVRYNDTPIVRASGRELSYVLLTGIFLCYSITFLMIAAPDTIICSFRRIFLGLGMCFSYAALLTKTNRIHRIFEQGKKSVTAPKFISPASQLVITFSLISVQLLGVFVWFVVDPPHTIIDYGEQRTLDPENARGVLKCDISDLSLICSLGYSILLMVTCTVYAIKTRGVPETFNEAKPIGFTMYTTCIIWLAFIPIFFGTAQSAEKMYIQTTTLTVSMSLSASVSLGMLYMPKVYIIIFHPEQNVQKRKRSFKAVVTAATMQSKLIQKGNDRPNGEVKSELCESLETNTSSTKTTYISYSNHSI
In the case of `CC(=O)Nc1ccc2oc(-c3cc(F)c(F)cc3Cl)nc2c1`, the z-score was 0.102.
`C=C(C)CNC(=S)N/N=C(\C)c1ccc(Cl)s1` gave a z-score of 2.26.
`CCOC(=O)c1c(-c2ccccc2)csc1NC(=O)c1cc2ccccc2oc1=O` showed a z-score of 0.0962.
For `CCC(C)c1ccc(NC(=O)CC(C)=O)cc1` (centres undefined), the z-score was 1.44.
Compound `CCOC(=O)c1cnn(-c2ccc(C(C)C)cc2)c1NC(=O)C1CCC1` has a z-score of -0.188.
Compound `CC12CCC(C(=O)N(NC(=O)c3cccnc3)C1=O)C2(C)C` (centres undefined) has a z-score of -0.471.
In the case of `COc1ccc(NS(=O)(=O)c2cc(NC(=O)c3cccc(OCc4c(C)noc4C)c3)ccc2OC)cc1`, the z-score was -1.32.
With `CCCCOc1ccc(C(=O)N/C(=C/C=C/c2ccccc2)C(=O)N2CCOCC2)cc1` the z-score was -0.206.
`Fc1ccc(NCc2cccnc2)cc1F` gave a z-score of -0.0239.
In the case of `COc1ccc(/C=C/c2nnc(NC(=O)COc3ccc(C)cc3)s2)cc1`, the z-score was -0.128.
Work on `CCC(C)NC(=O)c1cc(C)no1` (centres undefined) yielded a z-score of 0.285.
`Oc1ccc(/C=N/n2cnn(Cc3ccccc3Cl)c2=S)c(O)c1` gave a z-score of -1.11.
For `C=CCSc1nnc(NC(=O)c2ccc(S(=O)(=O)NCC3CCCO3)cc2)s1` (centres undefined), the z-score was -0.169.
Compound `O=C(CN1CCOCC1)N1CCCc2c1c(=O)oc1ccc(OCc3ccccc3)cc21` has a z-score of -0.517.
`Cc1ccc(C(=O)NCCc2ccncc2)cc1` gave a z-score of -0.0518.
Work on `CCCCn1c(N)c(NCCC(C)C)c(=O)[nH]c1=O` yielded a z-score of 0.0663.
For `COc1ccc(OC)c(N/C=C2/CCCCC2=O)c1`, the z-score was -0.0928.
`Cc1ccc(NC(=O)c2ccc(CNS(=O)(=O)c3cccc(C(F)(F)F)c3)cc2)cc1` gave a z-score of -0.0681.
`COc1cc2[nH]c(=S)nc(NCCCOC(C)C)c2cc1OC` gave a z-score of 0.257.
`O=C(COc1ccc(S(=O)(=O)N2CCOCC2)cc1)Nc1ccc(Cl)c(C(F)(F)F)c1` was tested, and the z-score was 0.835.
With `COc1ccc(C(=O)N/C(N)=N/c2nc3ccccc3o2)cc1` the z-score was -0.11.
`Cc1cccc(-n2c(SCC(=O)N3CCCC3)nc3n[nH]c(C)c3c2=N)c1` was tested, and the z-score was -0.237.
`COC(=O)c1ccc(CSc2nnc(-c3ccc4c(c3)OCO4)n2-c2ccccc2)o1` gave a z-score of -1.21.
With `CNc1oc(-c2ccc(Cl)cc2)nc1P(=O)(c1ccccc1)c1ccccc1` the z-score was -0.258.
`CC(=O)NC(C)c1nc2ccccc2n1C(C)C` (centres undefined) showed a z-score of -0.00659.
For `CC(C)CN(C(=O)CSc1nnc2ccccn12)c1c(N)n(CC(C)C)c(=O)[nH]c1=O`, the z-score was -0.775.
`C=C(C)Cn1c(C)cc(C)c(S(=O)(=O)c2ccccc2C)c1=O` gave a z-score of -0.371.
With `O=C(CCc1nc2ccccc2c(=O)[nH]1)OCC(=O)N1CCN(S(=O)(=O)c2ccccc2)CC1` the z-score was 0.865.
With `COc1ccccc1N1CCN(C(=O)Nc2cccc(Cl)c2)CC1` the z-score was -0.123.
Compound `Cc1noc(C)c1CSc1nc2ccccc2c(=O)n1-c1ccc(Cl)cc1` has a z-score of -0.312.
Work on `CCOC(=O)c1cnn(-c2ccccn2)c1N` yielded a z-score of -0.885.
Work on `CCOc1cc(/C=C\c2[nH]c(=O)[nH]c(=O)c2[N+](=O)[O-])ccc1OC(C)CC` (centres undefined) yielded a z-score of -0.322.
Compound `CCOc1ccc(CCNC(=O)C2CCN(c3nnc(-n4cccc4)s3)CC2)cc1OCC` has a z-score of -1.57.
`Cc1ccc(C)c(Oc2coc3cc(OC(=O)c4cccs4)ccc3c2=O)c1` gave a z-score of -0.0966.
In the case of `O=C(O)c1ccc(CNCc2cccc(Cl)c2Cl)cc1`, the z-score was -0.207.
For `COc1ccc(Cc2nc(C(=O)Nc3ccc(F)cc3)cs2)cc1`, the z-score was -0.279.
Work on `Cc1ccc(Cn2c(N)c(S(=O)(=O)c3cccs3)c3nc4ccccc4nc32)cc1` yielded a z-score of -0.1.
`O=C(CN(C1CCCCC1)S(=O)(=O)c1ccc(F)cc1)NC1CC1` gave a z-score of -0.118.
In the case of `Clc1ccc(OCCSc2ncccn2)cc1`, the z-score was -0.0238.
Work on `O=C(CN(Cc1ccco1)C(=O)c1ccccc1)Nc1ccc(Cl)c(Cl)c1` yielded a z-score of -0.0573.
Compound `N#Cc1nc(COc2cccc(Cl)c2)oc1NCc1ccco1` has a z-score of -0.533.
`Cc1ccc(-n2nc(C(=O)O)cc2-c2ccccc2)cc1` was tested, and the z-score was -1.98.
For `CCn1cc(Br)c(C(=O)N(C)Cc2ccccc2)n1`, the z-score was 0.274.
`CCO/C=C1/C(=O)N(C)C(=O)c2cc(OC)ccc21` was tested, and the z-score was -0.509.
Work on `COc1cc2c(C(=O)N3CCN(c4ccccc4)CC3)c(C)oc2cc1Br` yielded a z-score of -1.19.
Work on `O=C(/C=C/c1ccccc1)N/C(=C\c1ccco1)C(=O)NCCO` yielded a z-score of -0.177.
With `CCOC(=O)c1c(C)[nH]c(N=Nc2ccc(C)cc2C)c1C` the z-score was 0.245.
For `O=C(/C=C/c1ccc(-c2ccccc2[N+](=O)[O-])o1)c1ccc(Br)cc1`, the z-score was -0.124.
Work on `COc1ccc(-n2c(C)cc(C(=O)Cn3nnc4ccccc4c3=O)c2C)cc1` yielded a z-score of -0.0888.
`CN(CC(=O)NCc1ccccn1)S(=O)(=O)c1ccccc1` showed a z-score of -0.487.
`CC1(C)Cc2cccc(OCC(=O)N3CCN(S(=O)(=O)c4ccc(F)cc4)CC3)c2O1` was tested, and the z-score was 0.167.
`CN1C2=NCCN2C(=O)c2ccccc21` gave a z-score of -0.163.
With `CC(C)c1cc(N2CCN(C(=O)c3ccco3)CC2)n2c(nc3ccccc32)c1C#N` the z-score was -0.614.
Work on `COc1nnc(-c2ccc(N3CCCCC3)c(NC(=O)C3CCCCC3)c2)c2ccccc12` yielded a z-score of -0.3.
`CC(C)(C)n1ncc(Oc2ccc(Oc3cnn(C(C)(C)C)c(=O)c3Cl)cc2)c(Cl)c1=O` gave a z-score of 0.804.
`COC(=O)c1ccc(NS(=O)(=O)c2ccc(OC)cc2)cc1` showed a z-score of 0.37.
`COc1ccc(S(=O)(=O)n2ccnc2)c2cccnc12` showed a z-score of -0.239.
`CC(/C=C/c1ccco1)=N/NC(=O)Cc1cccs1` was tested, and the z-score was 0.472.
For `Cc1ccc(-c2nnc(SCC(=O)N/N=C/c3c(C)nn(-c4ccccc4)c3C)n2-c2ccc(C)cc2)cc1`, the z-score was -1.37.
`COc1nccnc1NS(=O)(=O)c1ccc(NC(=S)NC(=O)c2ccccc2F)cc1` showed a z-score of -0.299.
Work on `COC(=O)c1nnn(-c2nonc2N)c1CSc1ccc(Cl)cc1` yielded a z-score of 0.549.
Compound `C/C(=N\O)C(=O)NCC1CCNCC1` has a z-score of -1.03.
In the case of `CC(NC(=O)c1ccncc1)C(C)(C)C` (centres undefined), the z-score was -0.462.
Work on `Nc1ccc(C(=O)OCc2csc(-c3ccccc3)n2)cc1[N+](=O)[O-]` yielded a z-score of 0.00351.
With `O=S(=O)(N/N=C\c1ccc2c(c1)OCO2)c1ccc(Cl)cc1` the z-score was -0.14.
With `Cc1ccc(N=Nc2c(N)[nH]n3c(=O)c4c(nc23)CCCC4)cc1` the z-score was -0.696.
In the case of `CCOC(=O)c1cc(-c2ccc(Cl)cc2)nc2c1c(C)nn2CCC#N`, the z-score was active: 3.13.
In the case of `CCOc1ccc(C(C)=O)cc1Cn1nc(C(=O)O)c2ccccc2c1=O`, the z-score was -0.745.
Work on `CCOC(=O)c1c(NC(=S)Nc2ccccc2)sc2c1CCN(CCc1ccccc1)C2` yielded a z-score of 0.012.
Compound `O=C(/C=C/c1cccs1)c1ccc(Br)cc1` has a z-score of 0.0153.
With `O=C(Nc1cccc(C(F)(F)F)c1)N(Cc1ccc(Cl)cc1)CC(O)C(F)(F)F` (centres undefined) the z-score was 0.0136.
For `CN(C(=O)C1CCCO1)c1nnc(-c2ccncc2)s1` (centres undefined), the z-score was -0.579.
`CSCC[C@H](NC(=O)C(C)(C)Oc1ccc(Cl)cc1)c1nc2ccccc2[nH]1` was tested, and the z-score was -0.153.
Compound `Cc1nn(C)c(C)c1C1Nc2ccccc2C(=O)N1O` (centres undefined) has a z-score of 0.0427.
In the case of `O=C(COc1ccc(S(=O)(=O)Nc2ccccc2)cc1)NCc1cccnc1`, the z-score was -0.0839.
`CC(C)Oc1ccc(OCCNC2CCCC2)cc1` was tested, and the z-score was -0.0109.
For `CCN(C(N)=S)c1ccccc1`, the z-score was -0.0774.
Work on `CCCn1c(CC)nc([N+](=O)[O-])c1Sc1ccc(F)cc1` yielded a z-score of -0.87.
Work on `CCCCn1nc2cc(C(=O)NCC34CC5CC(CC(C5)C3)C4)ccc2c1OCC` yielded a z-score of -0.142.
Compound `Cc1ccc(S(=O)(=O)CCC(=O)OCC(=O)Nc2ncc(Cl)cc2Cl)cc1` has a z-score of 0.131.
`c1ccc(Cn2c(CSc3nnnn3-c3ccccc3)nc3ccccc32)cc1` was tested, and the z-score was -0.165.
`Cc1cc(-n2c(C)cc(C(=O)CN3C(=O)NC4(CCCC4)C3=O)c2C)no1` gave a z-score of 0.226.
`O=C(CSc1nnc(-c2ccccn2)n1Cc1ccco1)c1ccccc1` showed a z-score of 1.88.
Work on `CCC(CC)C(=O)NCCc1ccc(OC)cc1` yielded a z-score of -0.246.
Compound `Cn1nc(C(=O)N2CCOCC2)c([N+](=O)[O-])c1C(=O)N1CCOCC1` has a z-score of -0.0601.
`CC12CCCc3c(O)cc(=O)n(c31)-c1ccccc12` (centres undefined) showed a z-score of -1.16.
With `C=CCn1c(SCCC)nc2sc3c(c2c1=O)CCc1ccccc1-3` the z-score was -0.0297.
Work on `CSc1nncc(/C(C)=N\Nc2ccccc2C)n1` yielded a z-score of -0.0694.
For `CCOC(=O)N1CCN(C(=O)CN(C2CCCCC2)S(C)(=O)=O)CC1`, the z-score was 0.489.
With `Cc1ccc(NC(=O)Cn2nc(C(F)(F)F)c3c2CCC3)cc1` the z-score was -1.11.
With `Cc1ccc(N(CC(=O)Nc2ccc(C)cc2C)S(=O)(=O)N2CCCC2)cc1` the z-score was -0.379.
Compound `CN(C)c1ccc(N=C/C=C2/N(C)c3ccccc3C2(C)C)cc1` has a z-score of 0.909.
`C=CCNC(=O)/C(C#N)=C/c1cn(-c2ccccc2)nc1-c1cccs1` gave a z-score of -0.0995.
Compound `COc1cc(C(=O)Nc2c(C)cc(C)cc2C)c([N+](=O)[O-])cc1OC` has a z-score of -0.304.
Compound `O=C(Nc1cccc2[nH]ncc12)c1ccc(F)cc1` has a z-score of -0.0429.
`COC(=O)c1cc(C(=O)N(Cc2ccccc2)c2ccccn2)cc([N+](=O)[O-])c1` showed a z-score of -0.435.
`CCOC(=O)c1c(C)sc(Sc2ccc(Cl)cc2[N+](=O)[O-])c1OC` showed a z-score of -0.412.
Work on `Cc1cccc(N/N=C(\C(N)=O)C2=NC(C)(C)Cc3ccccc32)c1` yielded a z-score of -0.302.
In the case of `CCOC(=O)c1ccc(N2C(=O)c3n[nH]c(C)c3C2c2ccc(OC)cc2OC)cc1` (centres undefined), the z-score was -0.325.
`C=CCn1c(SCc2ccc3c(c2)OCO3)nc2scc(-c3ccco3)c2c1=O` gave a z-score of -0.276.
Compound `Cc1nn(-c2ccccc2)c(N2CCCC2)c1/C=N/NC(=O)c1cc(-c2ccccn2)nc2ccccc12` has a z-score of -0.211.
Work on `CCOC(=O)c1c(NC(=O)COC(=O)Cn2c(C(F)(F)F)nc3ccccc32)sc(C)c1C` yielded a z-score of 0.193.
`CCOC(=O)c1sc(=S)sc1SCc1cccc(C(F)(F)F)c1` showed a z-score of -0.0513.
In the case of `O=C(NCc1ccco1)c1ccccc1NS(=O)(=O)c1ccc(Br)s1`, the z-score was -0.938.
For `CSc1n[nH]c(NCc2ccccc2)n1`, the z-score was -0.326.
In the case of `O=C(Nc1ccc(S(=O)(=O)N2CCN(c3ccccc3)CC2)cc1)c1cccs1`, the z-score was 0.314.
With `C=CCn1c(SCC(=O)N2CC(=O)Nc3ccccc32)nc2scc(-c3cccs3)c2c1=O` the z-score was -0.201.
In the case of `O=C(NCCCN1CCCC1=O)Nc1ccc(Cl)cc1`, the z-score was 0.0955.
`CCOc1cc(/C=N/NC(=O)Cn2nc([N+](=O)[O-])cc2C)cc(Br)c1OCc1ccccc1F` showed a z-score of -0.0118.
